# Source: US4644055A, “Method for preparing specific inhibitors of virus-specified proteases” (priority 1984, dated 1987)
# At least one peptide structure holds a part that was inferred or is arguable (an end, a ring closure or a residue). Starred links: 1 amine or outer side, 2 acyl side, 3 side chain; linkers in the order of their positions; H or OH if unused. Residues, ends and D or L forms follow the SMILES beside them. *: point of attachment. Dansyl = CN(C)c1cccc2c(S(=O)(=O)*)cccc12; Suc = O=C(CCC(=O)[*:2])[*:1]; MeOSuc = COC(=O)CCC(=O)*; Boc = CC(C)(C)OC(=O)*; CH2Cl = ClC*
# Tested on: human poliomyelitisvirus type 2
# Type: cell-based, poliovirus type 2
# Design: key to Comparative Experiments Involving Other Peptide Halomethyl Ketones: Activity: -: no activity; +/-: low activity; +: active at 100 μg/mL; ++: active at 50 μg/mL; +++: active at 10 μg/mL; ++++: active at <5 μg/mL
# Conditions: not given
SMILES,Comparative Experiments Involving Other Peptide Halomethyl Ketones: Activity,Protease-Inhibiting Activity of Selected Peptide Halomethyl Ketones: Activity,activity in the viral cleavage assay
CCOC(=O)CC[C@H](NC(=O)[C@H](Cc1ccccc1)NC(C)=O)C(=O)N[C@@H](C)C(=O)N[C@@H](CC(C)C)C(=O)CCl [Ac--Phe--Glu(OEt)--Ala--LeuCH2 Cl] (Ac-FE(OEt)AL-CH2Cl),+/-,,
CC(=O)N[C@@H](Cc1ccccc1)C(=O)N[C@@H](CCC(=O)O)C(=O)N[C@@H](C)C(=O)N[C@@H](CC(C)C)C(=O)CCl [Ac--Phe--Glu--Ala--LeuCH2 Cl] (Ac-FEAL-CH2Cl),+/-,,
"CC(=O)N[C@@H](Cc1ccccc1)C(=O)NCC(=O)N[C@@H](C)C(=O)N[C@@H](CC(C)C)C(=O)CCl [Ac--Phe--Gly--Ala--LeuCH2 Cl, acetyl-L-phenylalanyl-L-glycyl-L-alanyl-L-leucyl cholormethyl ketone] (Ac-FGAL-CH2Cl)",,+++ (key: -: no activity; +/-: low activity; +: active at 100 μg/mL; ++: active at 50 μg/mL; +++: active at 10 μg/mL; ++++: active at <5 μg/mL),
CC(=O)N[C@@H](Cc1ccccc1)C(=O)NCC(=O)N[C@@H](CCC(=O)O)C(=O)N[C@@H](CC(C)C)C(=O)CCl [Ac--Phe--Gly--Glu--LeuCH2 Cl] (Ac-FGEL-CH2Cl),+/-,,
"CC(C)C[C@H](NC(=O)[C@H](C)NC(=O)CNC(=O)OC(C)(C)C)C(=O)CCl [Boc--Gly--Ala--LeuCH2 Cl, Boc-Gly-Ala-LeuCH2 Cl] (Boc-Gly-Ala-Leu-CH2Cl)",,++ (key: -: no activity; +/-: low activity; +: active at 100 μg/mL; ++: active at 50 μg/mL; +++: active at 10 μg/mL; ++++: active at <5 μg/mL),
CC(=O)[C@H](CC(C)C)NC(=O)[C@H](C)NC(=O)CNC(=O)[C@H](Cc1ccccc1)NC(=O)OC(C)(C)C [Boc-Phe-Gly-Ala-LeuCH3],,,failed to show activity
CC(C)C[C@H](NC(=O)[C@H](C)NC(=O)CNC(=O)[C@H](Cc1ccccc1)Nc1ccc([N+](=O)[O-])cc1[N+](=O)[O-])C(=O)CCl [DNP--Phe--Gly--Ala--LeuCH2 Cl],,+++ (key: -: no activity; +/-: low activity; +: active at 100 μg/mL; ++: active at 50 μg/mL; +++: active at 10 μg/mL; ++++: active at <5 μg/mL),
CC(C)C[C@H](NC(=O)[C@H](C)NC(=O)CNC(=O)[C@H](Cc1ccccc1)NS(=O)(=O)c1cccc2c(N(C)C)cccc12)C(=O)CCl [DNS--Phe--Gly--Ala--LeuCH2 Cl] (Dansyl-FGAL-CH2Cl),,+++ (key: -: no activity; +/-: low activity; +: active at 100 μg/mL; ++: active at 50 μg/mL; +++: active at 10 μg/mL; ++++: active at <5 μg/mL),
CC(C)C[C@H](NC(=O)[C@H](C)NC(=O)CNC(=O)[C@@H](N)Cc1ccccc1)C(=O)CCl [H--Phe--Gly--Ala--LeuCH2 Cl] (H-FGAL-CH2Cl),+/-,,
CC[C@H](C)[C@H](NC(=O)[C@H](C)NC(=O)CCC(=O)OC)C(=O)N[C@@H](Cc1ccccc1)C(=O)N[C@@H](CCC(=O)OC)C(=O)CCl [MeOSuc--Ala--Ile--Phe--Glu(OCH3)CH2 Cl] (MeOSuc-AIFE(OMe)-CH2Cl),,+++ (key: -: no activity; +/-: low activity; +: active at 100 μg/mL; ++: active at 50 μg/mL; +++: active at 10 μg/mL; ++++: active at <5 μg/mL),
CC[C@H](C)[C@H](NC(=O)[C@H](C)NC(=O)CCC(=O)OC)C(=O)N[C@@H](Cc1ccccc1)C(=O)N[C@@H](CC(C)C)C(=O)CCl [MeOSuc--Ala--Ile--Phe--LeuCH2 Cl] (MeOSuc-AIFL-CH2Cl),,+++ (key: -: no activity; +/-: low activity; +: active at 100 μg/mL; ++: active at 50 μg/mL; +++: active at 10 μg/mL; ++++: active at <5 μg/mL),
"COC(=O)CCC(=O)N[C@@H](Cc1ccccc1)C(=O)NCC(=O)N[C@@H](C)C(=O)N[C@@H](CC(C)C)C(=O)CCl [MeOSuc--Phe--Gly--Ala--LeuCH2 Cl, methoxysuccinyl-L-phenylalanyl-L-glycyl-L-alanyl-L-leucyl chloromethyl ketone] (MeOSuc-FGAL-CH2Cl)",,+++ (key: -: no activity; +/-: low activity; +: active at 100 μg/mL; ++: active at 50 μg/mL; +++: active at 10 μg/mL; ++++: active at <5 μg/mL),
COC(=O)CCC(=O)N[C@@H](Cc1ccccc1)C(=O)NCC(=O)N[C@@H](CC(C)C)C(=O)N[C@@H](CCC(=O)OC)C(=O)CCl [MeOSuc--Phe--Gly--Leu--Glu(OCH3)CH2 Cl] (MeOSuc-FGLE(OMe)-CH2Cl),,++++ (key: -: no activity; +/-: low activity; +: active at 100 μg/mL; ++: active at 50 μg/mL; +++: active at 10 μg/mL; ++++: active at <5 μg/mL),
"CC(C)C[C@H](NC(=O)[C@H](C)NC(=O)CNC(=O)[C@H](Cc1ccccc1)NC(=O)CCC(=O)O)C(=O)CCl [Suc--Phe--Gly--Ala--LeuCH2 Cl, Suc-Phe-Gly-Ala-LeuCH2 Cl] (Suc-FGAL-CH2Cl)",,+++ (key: -: no activity; +/-: low activity; +: active at 100 μg/mL; ++: active at 50 μg/mL; +++: active at 10 μg/mL; ++++: active at <5 μg/mL),

# Target: T1, subtilisin BPN' (Bacillus amyloliquefaciens, UniProt P00782)
# T1 sequence (P00782 108-382): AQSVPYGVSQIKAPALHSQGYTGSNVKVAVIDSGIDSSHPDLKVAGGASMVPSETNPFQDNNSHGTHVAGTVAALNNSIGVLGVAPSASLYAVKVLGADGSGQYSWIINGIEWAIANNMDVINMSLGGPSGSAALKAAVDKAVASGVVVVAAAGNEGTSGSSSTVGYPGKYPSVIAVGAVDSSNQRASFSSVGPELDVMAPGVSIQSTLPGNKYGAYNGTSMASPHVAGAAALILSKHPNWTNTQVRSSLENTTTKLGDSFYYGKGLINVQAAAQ
# Conditions: Powers et al. 1977; cited from earlier work
row,SMILES,inhibition of subtilisin BPN' (rank among peptide chloromethyl ketones tested)
1,"CC(=O)N[C@@H](Cc1ccccc1)C(=O)NCC(=O)N[C@@H](C)C(=O)N[C@@H](CC(C)C)C(=O)CCl [Ac--Phe--Gly--Ala--LeuCH2 Cl, acetyl-L-phenylalanyl-L-glycyl-L-alanyl-L-leucyl cholormethyl ketone] (Ac-FGAL-CH2Cl)",fastest inhibitor
